# Assay results as given in the supplement of paper PMC11417369.
# This is one part of the list.
# Tested on: PF3D7_0420300 AP2 domain 1 (GST-tagged)
# Assay: gcPBM binding intensity (ln(normalized median fluorescence intensity)); higher = stronger DNA binding
# Outline: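 An Agilent 4 × 180k array carrying primer-extended double-stranded 36-bp intergenic genomic probes and negative controls received GST-tagged P. falciparum DNA-binding domains expressed in E. coli, about 25 μg on average, for 1 h. The binding buffer contained 1× PBS, 1% milk, 0.2 mg/ml BSA, 0.5% salmon testes DNA and 0.03% Triton X-100. Binding intensity is the top Masliner-normalised natural-log median intensity across replicate spots of either probe orientation, read after Alexa488 anti-GST antibody staining and a 488 nm scan.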
row,Sequence,gcPBM binding intensity (ln)
1,ATATTGTAAGTAAAATGTAATAAATATAATAAAATA [CACACA_negctrl_site697],9.34
2,TTAGTATATACATTTGCACACATTATTTTTTAACAT [CACACA_site2618],9.68
3,TCCTTGCATTTTAAAACACACAAAAATTAATTGTTA [CACACA_site7152],9.19
4,TAAAAATGTGGACACACACACATATATATATTTAAT [CACACA_site4941],9.79
5,TTTCTAATTATTTCCCTTCAAATATATTAATATCGT [CACACA_negctrl_site429],9.13
6,ATATATATTATTATATGTACATATAAATATATTAAT [XGTACX_site5270],9.09
7,AAAAGCTATAAAAATCGGTAATTTATAACAGGAATT [CACACA_negctrl_site469],9.33
8,AATGTTAAGGAGGGGAGTACATAAAATTCTCTCTCC [XGTACX_site1990],9.03
9,ATTATGTACTATTATACACACGTTTAATTGTAAATT [CACACA_site4278],9.45
10,ATTATACACGCGCGCACACACAACAAAAAAAAAAAA [CACACA_site7630],9.69
11,ATAATAATAAAGTGAACACACACATATAATATATAT [CACACA_site9378],9.73
12,TGGTAACAGCATAGAAAATGGACAAACGAAATATAA [GTGCAC_negctrl_site537],9.47
13,TAAATAAACAAATTAACACACAGAATTTTTTTTTTC [CACACA_site1674],9.44
14,TATTTAAAAATAAAATGTACATATTATTATGCATTA [XGTACX_site1303],8.95
15,TTAATATTGTTATAGCGTACAAATAAACATATTAAA [XGTACX_site8153],9.14
16,TTACATATTTATGATTGTACACATTTATAAACAATA [XGTACX_site2190],9.11
17,TGATTCTAACTTATGGTGCAACATTATGGACACCGT,8.99
18,AAAAGTCTCTTTTTAGTGCACATTTTATTTAAATAT,9.17
19,CAGATAAGGTGAAGCTGTACAAAAATGTTTTATAAC [XGTACX_site6783],9.28
20,TCTAATTATCACATTGCACACACATTTCCTTTTACA [CACACA_site9140],9.98
21,TTATACTGTATAGTCGCACACAAAAATATAAAATAT [CACACA_site3869],9.47
22,TAATTAATTTATGTAACACACATTGTTGATTCAATA [CACACA_site1098],9.25

row,Sequence,gcPBM binding intensity (ln)
1,ATATTAAGAATGTATACATGCATATATATATAGTAC [TGCATGCA_site219],9.4
2,TTCGTTAAAAATAAATGTACATAAATAAACCTTATT [XGTACX_site621],9.09
3,ATTTTAATAAACACTTACATGTTTTCCAAATTGTAT [CACACA_negctrl_site1807],9.12
4,TATTAATAAATATGTTTACACACGAAAATACATTTT [CACACA_site1012],9.41
5,AAAGATTTAGAAAATGAACACACGAGCACCCACCGA [CACACA_site1017],9.7
6,GAAAGAGAGATATATACACACATATTTATATTTTTA [CACACA_site7057],9.47
7,TTATTATCTCTTGTCATTATTATATACTAAGAAGTA [CACACA_negctrl_site410],9.12
8,AATATGAAATATATTACACACATTTATATGTTGAAA [CACACA_site1427],9.46
9,AATACACCCAGACACACACACAAAAAAAAAAAAAAA [CACACA_site513],9.51
10,TTTGAATCCTTATATACACACATTATGTAATATTAT [CACACA_site561],9.5
11,AAAAGAGAAATGGGCACACACACACCGATTATATAT [CACACA_site4942],10.2
12,ATATATATATTAAATACACACATTTTTGATTAGGTT [CACACA_site3119],9.44
13,ATTACATTTTTAATGCGTACTAAAAATGTATATAAG [XGTACX_site6384],8.96
14,AGAATTACTTAAAAAAGTACATAAAATTATTTAAAA [XGTACX_site2205],9.04
15,AATATAAAAATGTTTACACACACACCCAAATATATT [CACACA_site2511],10.1
16,TGTATAAATAAATGCGTACACACTAATAAAAAAAAA [CACACA_site858],9.45
17,CAACTTTTTGAAAATTGTACATGACATATATATATA [XGTACX_site260],9
18,TTATGTAAATAATTTTGTACTTAAATTATTATATAA [XGTACX_site1491],8.87
19,AAAAAAAATATGATGAGTACACAATAATACATGCAA [XGTACX_site6999],9.54
20,AATATCTAAAATGTGTGTACATAATATTTTTAATAT [XGTACX_site3831],9.45
21,GTGGTTATATATTAAGTGCATATTATAATTTTAAAC,9.23
22,ATAGATAAAAAATTATTTATTTAGAATTTTTATGTA [CACACA_negctrl_site400],8.76
